Data: the supplement of paper PMC10126150
Values marked as one replicate rest on one cluster of the flow cell; about a third of the high ones do not repeat.

System: ATP
Assay: switch fluorescence ratio, 500 uM ATP over buffer (Cy3 cluster intensity, sum of 5 cycles each) (fold (ratio)); higher = stronger signal-on switching upon ATP binding; sequences stand for … in TCGTCGGCAGCGTCAGATGTGTATAAGAGACAGTTTTTTTTTTTTTTTTTTTTTTTTT…TC
Details: aptamer strand: ATP DNA aptamer (quencher-CACCTGGGGGAGTATTGCGGAGGAAGG + anchor), 100 nM annealed; ATP concentration: 500 uM; one replicate
Summary of the method: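 Between each of five buffer/ATP cycles, the flow-cell was stripped with NaOH and re-annealed. Each cycle imaged Cy3-labelled switching-strand clusters, annealed to 100 nM quencher-labelled ATP aptamer on a modified Illumina MiSeq flow-cell, first in selection buffer and then after 15 min with 500 uM ATP at 22 °C. The fluorescence ratio is summed target-cycle over summed buffer-cycle Cy3 intensity per cluster, averaged per switch-domain sequence, with clusters outside 100-1000 RFU excluded.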
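Further: ATP exposure 15 min at 22 °C before imaging.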

| Sequence | switch fluorescence ratio |
| --- | --- |
| AGGCGGATAT | 0.99 |
| GTCGGCCCAA | 1.05 |
| AGTAGTCACA | 1 |
| AGAAATGTAC | 1.09 |
| TAATATGGCA | 0.987 |
| TGGTCAACTC | 1.03 |
| GCTAAGATTT | 1.03 |
| GACAATCAAA | 1 |
| CGGTGTAGTA | 1.05 |
| ACGGCGGTCC | 1.04 |
| AGTACTAAAA | 0.993 |
| CCTCGATCGT | 1.03 |
| TATATCCAAG | 1.01 |
| GAAAAAGTG | 0.991 |
| TGGTTGGAGA | 1 |
| ACCTAATAGT | 1.05 |
| AGCTCTATGA | 0.961 |
| AAACACTGTT | 1.14 |
| GGGGTGACAC | 1.04 |
| ACACTTATGT | 0.989 |
| AACCTATACT | 1.32 |
| TTGGTCGGTG | 1.03 |
| GGGGCCAGCG | 1.1 |

| Sequence | switch fluorescence ratio |
| --- | --- |
| TTAGAGATGG | 0.981 |
| TTCAATCAA | 1.04 |
| GTGGAACTAC | 1.04 |
| CCACGTTCTA | 1.03 |
| AGTGAGATTT | 0.965 |
| CCGCTAAGGA | 1.25 |
| CATGCCCCCA | 1.06 |
| ACGTTACACT | 1.49 |
| TACACCGGGT | 1.11 |
| CGCGACCAAT | 1.37 |
| GACGTTACC | 1.78 |
| ACCTTTAAG | 1.01 |
| AGTGACCGGA | 0.977 |
| TGTAGCTGCG | 0.963 |
| CATTTTTCGG | 1.05 |
| GCATTATTAT | 0.992 |
| AGCTCGGGAT | 0.995 |
| GACTTGTAGA | 1.03 |
| CGGGTCACCC | 0.985 |
| AGATCTGGG | 1.09 |
| ACATACGGGT | 1.32 |
| TATTCACTTA | 1.02 |
| TATGCGGGAA | 0.885 |

| Sequence | switch fluorescence ratio |
| --- | --- |
| CAGCTTTTT | 0.965 |
| CTCCCGTTA | 1.37 |
| ATTTTTCAAA | 1.02 |
| CGAGTGAAAA | 1.3 |
| TGTTGAAGGA | 1.75 |
| TGAGGTGCAA | 1.07 |
| TTGCGTATCA | 0.965 |
| AGTGGAAGGC | 1.04 |
| ACGAGGT | 0.933 |
| GGGGGAGTAT | 0.974 |
| GGTGCGAGTC | 1.03 |
| TTGTATCCTT | 1 |
| CCAAGCCTG | 0.99 |
| TGTGGAGTA | 1.04 |
| GGCAGCTAGG | 1.02 |
| CGCGTAATTA | 1.03 |
| AATCAGGTG | 3.76 |
| TAAAAACGT | 1.03 |
| GATAATACGC | 1.09 |
| CGCGGGTCCG | 0.983 |
| GGGTATACTA | 0.972 |
| CAATATCATG | 0.993 |
| GACGGAAACG | 0.98 |

| Sequence | switch fluorescence ratio |
| --- | --- |
| TGATTGCCGC | 1.02 |
| TGCGAGGGAC | 1.01 |
| TTCGGACCTG | 1.05 |
| CATGTGGAAA | 0.991 |
| TCATGTGGGT | 0.992 |
| TGCGGTAGGG | 1.03 |
| TTGAAGCTT | 1.03 |
| ATATTCATGA | 1.01 |
| ACCCTGCTGT | 1.04 |
| CTGACCCCCA | 1.65 |
| ACTCAATGTC | 1.05 |
| ATTGAAGGTC | 1.04 |
| CGGGGACTAA | 1.07 |
| TAGTAGCGGT | 0.994 |
| TAAGTAGTTG | 0.966 |
| GTTCCTTTGG | 0.984 |
| CGCGCCTGGA | 1.03 |
| GAAGAAGTGG | 0.983 |
| CTGGGCATGG | 1.04 |
| CCTCTTGGCC | 1.07 |
| TTTACTGATA | 0.991 |
| TGGCAACTTT | 0.996 |
| GGGAAGACTG | 1.01 |

| Sequence | switch fluorescence ratio |
| --- | --- |
| CGAGATGGAC | 1.02 |
| GAGGTGCCGG | 0.999 |
| TACATGGCTT | 1 |
| TCGTGTGCAT | 1.01 |
| ATTCTACTCA | 1.01 |
| AAACCTTCAT | 1.05 |
| CCTAGCGCTG | 1.44 |
| TTCAATTACT | 1.01 |
| GAGGACTTAT | 1.05 |
| ACGCGAGCT | 0.98 |
| AGGGACCGAA | 1.04 |
| ACTCTCATCT | 0.994 |
| TGACAACTAG | 1.03 |
| TAAAGCGGGG | 1.01 |
| CAATTTTAAG | 1.01 |
| GCCTGGATGT | 0.962 |
| AACCGTGAGT | 0.967 |
| CGTAGCTTGG | 1.24 |
| TCGAAACGGA | 1.03 |
| GTGAAGATTC | 0.991 |
| TGCACGAGTT | 1.01 |
| AATAAACGCA | 1.12 |
| CTATCGGTGC | 1.04 |

| Sequence | switch fluorescence ratio |
| --- | --- |
| ATCTACGTCT | 0.977 |
| TAGTTCCATC | 1.01 |
| TGAATCTTTT | 0.985 |
| TATCGCTGCT | 1.04 |
| GTTGTCGTTA | 1.05 |
| AATTGCAATA | 1.32 |
| ATATGACTGT | 0.964 |
| CCGTTCTGTG | 0.999 |
| CTGGGTGTAC | 1.05 |
| AAAGAGAGGG | 1.05 |
| GTAGTGTTCC | 1.08 |
| ATAACTATGG | 1.01 |
| TATGACCTC | 1.01 |
| CAAGGGTTGG | 0.989 |
| GTTTCTTTCT | 0.955 |
| TCTATGCTCT | 1.02 |
| GGCGAAGGGG | 1.1 |
| GTGTATGGCA | 1.02 |
| GACTCTGGT | 0.942 |
| AGACAGTGGC | 1.09 |
| GCATGACGGT | 0.996 |
| CATTAGTGGC | 1.08 |
| GGCAACGTGG | 0.967 |

| Sequence | switch fluorescence ratio |
| --- | --- |
| TATCGGGCTA | 1.02 |
| TGGGAATGAT | 1.01 |
| TGAACAACAT | 1 |
| AACTTCAGT | 1.03 |
| GCGTTTGT | 0.976 |
| GATGTCTAAT | 0.996 |
| ACCTGGCATT | 1 |
| GGAGTACAAC | 1.02 |
| TGTGTCTCAA | 1.01 |
| TCGTTTATT | 1.03 |
| CGAGATGAGT | 0.949 |
| GACGTTAAGT | 1.03 |
| CCAGGAGAAG | 1.02 |
| AGGGCCGTG | 1.03 |
| CGAAGGAGTC | 1.01 |
| TATTTACAAT | 1.04 |
| TTAAAAAATC | 0.99 |
| GGAGCCAAGT | 1.08 |
| TGAGCGCCAG | 1.02 |
| TTGGCTTAAT | 1.02 |
